Measured values reported in PubChem BioAssay AID504339 (National Center for Advancing Translational Sciences (NCATS), 2011).
In all, about 390,000 compounds went through this assay and about 17,000 (4.4%) were called active. Inconclusive means that the source gave no clear call. Such entries were picked first, then a sample of the others. Calls come from the whole dose curve; as a rule, active = well fitted inhibition curve with a large enough effect; inconclusive = small, poorly fitted or top-dose-only effect; inactive = no such curve, though single readings can be large or run the other way. Potencies of inconclusive entries are doubtful fits and often do not repeat.
% is set by controls: 0 for no effect and ±100 for the full control effect; potency is the fitted concentration of half-maximal effect; tags give direction and shape of the fitted curve.
Note: nearly all actives have a fitted effect of over 50% in size.

These molecules were tested against Lysine-specific demethylase 4A (Homo sapiens) (UniProt O75164) (assay: qHTS Assay for Inhibitors of JMJD2A-Tudor Domain). Details: AlphaScreen JMJD2A-Tudor / H3K4me3 peptide binding; activity change, negative = inhibition: at 114 µM (top of the series).
UniProt O75164, sequence (O75164 whole entry, looked up, the tested form may be a part): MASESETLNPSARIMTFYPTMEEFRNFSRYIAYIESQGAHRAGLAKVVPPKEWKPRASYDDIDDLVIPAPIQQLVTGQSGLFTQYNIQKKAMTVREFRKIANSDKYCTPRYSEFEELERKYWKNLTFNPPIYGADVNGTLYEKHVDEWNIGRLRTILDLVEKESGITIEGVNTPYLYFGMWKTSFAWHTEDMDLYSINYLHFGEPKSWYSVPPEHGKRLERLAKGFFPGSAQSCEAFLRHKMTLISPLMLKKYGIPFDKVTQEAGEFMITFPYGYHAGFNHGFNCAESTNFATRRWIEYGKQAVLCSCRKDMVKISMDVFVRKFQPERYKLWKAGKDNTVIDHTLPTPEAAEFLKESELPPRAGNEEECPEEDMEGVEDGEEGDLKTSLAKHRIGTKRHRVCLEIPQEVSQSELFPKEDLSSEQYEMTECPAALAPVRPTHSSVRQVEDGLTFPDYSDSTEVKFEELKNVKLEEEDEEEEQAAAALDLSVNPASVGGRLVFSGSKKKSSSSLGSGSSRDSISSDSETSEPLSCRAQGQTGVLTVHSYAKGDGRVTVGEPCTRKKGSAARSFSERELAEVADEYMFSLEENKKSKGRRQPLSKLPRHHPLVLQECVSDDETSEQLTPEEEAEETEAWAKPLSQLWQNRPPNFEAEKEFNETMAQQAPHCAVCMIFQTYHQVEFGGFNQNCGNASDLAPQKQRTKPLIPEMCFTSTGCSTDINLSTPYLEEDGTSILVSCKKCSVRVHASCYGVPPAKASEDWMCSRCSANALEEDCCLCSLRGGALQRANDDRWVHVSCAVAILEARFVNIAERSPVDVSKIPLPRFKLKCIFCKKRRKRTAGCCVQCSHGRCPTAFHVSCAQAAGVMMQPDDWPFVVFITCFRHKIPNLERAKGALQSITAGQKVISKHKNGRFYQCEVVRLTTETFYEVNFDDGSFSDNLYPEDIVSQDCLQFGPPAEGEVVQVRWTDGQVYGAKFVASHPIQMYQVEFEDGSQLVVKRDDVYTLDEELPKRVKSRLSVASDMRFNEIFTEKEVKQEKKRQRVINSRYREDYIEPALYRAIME
`CCOc1ccc2ccccc2c1C(=O)N[C@@H]1C(=O)N2[C@@H]1SC(C)(C)[C@@H]2C(=O)O` was tested, and the Potency was inconclusive: 89.1 µM [inhibitor, single point].
For `Cn1cc(C(C[N+](=O)[O-])c2ccccc2)c2ccccc21` (configuration not stated), the Potency was “inactive”.
With `CN1CCN(c2ccc(NC(=O)Cc3ccccc3)cc2)CC1` the Potency was “inactive”.
`COc1ccc(CCNC(=O)c2cc(-c3ccccc3)c(N3CCOCC3)s2)cc1OC` was tested, and the Potency was inconclusive: 70.8 µM [inhibitor, single point].
In the case of `CCOC(=O)C1=C(c2ccccc2)NC(=O)NC1c1cc(Cl)c(O)c(OC)c1` (configuration not stated), the Potency is reported as “inactive”.
With `Cc1ccc2c(C)c(C(=O)N(C)Cc3nccn3C)oc2c1C` the Potency was inconclusive: 56.2 µM [inhibitor, partial curve].
For `CCOc1nc(NCCc2ccc(OC)c(OC)c2)nc(N2CCN(c3ccc(OC)cc3)CC2)n1`, the Potency was “inactive”.
With `Cc1ccc(-c2nnc(-c3ccc(NC(=O)c4cccs4)cc3)o2)cc1` the Potency was inconclusive: 11.2 µM [inhibitor, partial curve].
With `Cc1cc(Br)ccc1NC(=O)CN1C(=O)C2CC=CCC2C1=O` (configuration not stated) the Potency was inconclusive: 39.8 µM [inhibitor, single point].
In the case of `CCC1CCCCN1C(=O)Cn1c(=O)n(CCCC(=O)NCc2ccco2)c(=O)c2sccc21` (configuration not stated), the Potency is reported as inconclusive: 89.1 µM [inhibitor, single point].
In the case of `Cc1cccc(N(Cc2ccccc2)C(=O)CN2C(=O)NC3(CCCCC3C)C2=O)c1` (configuration not stated), the Potency is reported as inconclusive: 63.1 µM [inhibitor, partial curve, poor fit].
With `CC1CN(C(=O)CN2C(=O)c3ccccc3S2(=O)=O)CC(C)O1` (configuration not stated) the Potency was inconclusive: 70.8 µM [inhibitor, single point].
`CC(NCc1ccc(N(C)C)cc1)C1CC2CCC1C2` (configuration not stated) was tested, and the Potency was active: 89.1 µM.
For `Cc1ccc(-c2nc(S(=O)(=O)c3ccc(C)cc3)c(N3CCN(c4ccccc4)CC3)o2)cc1`, the Potency was inconclusive: 50.1 µM [inhibitor, partial curve].
With `CCn1c(CCNC(=O)c2cccs2)nnc1SCC(=O)c1ccc(OC)cc1` the Potency was active: 28.2 µM.
With `Cc1ccc(N(CC(=O)N2CCN(c3ccc(Cl)cc3)CC2)S(=O)(=O)c2c(C)noc2C)cc1` the Potency was inconclusive: 2 µM [inhibitor, full curve, poor fit].
In the case of `COc1ccc(C2=NN(C(=O)CCC(=O)O)C(c3ccc([N+](=O)[O-])cc3)C2)cc1` (configuration not stated), the Potency is reported as “inactive”.
`CCN(CC(=O)Nc1cc(C)on1)CC(=O)Nc1ccccc1C(F)(F)F` was tested, and the Potency was inconclusive: 100 µM [inhibitor, single point].
With `Cc1cc2ccccn2c1C(=O)c1nc(NCc2ccccc2)ncc1Cl` the Potency was inconclusive: 44.7 µM [inhibitor, partial curve].
With `COC(=O)CCC(=O)N1CN2CN(C(=O)CCC(=O)OC)CC([N+](=O)[O-])(C2)C1` the Potency was “inactive”.
In the case of `COc1ccc(OC)c(NC(=O)COC(=O)c2ccc(-n3cnnn3)cc2)c1`, the Potency is reported as “inactive”.
With `CN1CCN(c2ccc(NC(=O)COc3cccc4ccccc34)cc2)CC1` the Potency was inconclusive: 31.6 µM [inhibitor, partial curve].
`Cc1ccc(-n2c(CNc3ccc(C)c(Cl)c3)n[nH]c2=S)cc1` was tested, and the Potency was inconclusive: 44.7 µM [inhibitor, partial curve].
With `COC(=O)c1ccc(C23CC4(C2)[C@H](CN(C)[C@@H]4c2ccccc2)C3c2ccc(C(F)(F)F)cc2)cc1` (some centres not stated) the Potency was inconclusive: 44.7 µM [inhibitor, partial curve].
In the case of `O=C(Cc1cccs1)Nc1nnc(SCc2ccc(Br)cc2)s1`, the Potency is reported as inconclusive: 63.1 µM [inhibitor, single point].
For `CCOc1ccc(C2C(=O)N(C3CCCCCC3)CC(=O)N2CCc2ccccc2)cc1OC` (configuration not stated), the Potency was “inactive”.
With `Cc1[nH]c2ccccc2c1/C=N/NC(=O)c1cc(-c2ccccc2)n[nH]1` the Potency was inconclusive: 56.2 µM [inhibitor, partial curve].
For `CN1CCC(NC(=S)Nc2cccc([N+](=O)[O-])c2)CC1`, the Potency was “inactive”.
In the case of `NS(=O)(=O)c1ccc(N/N=C2/CCCCC2C2CCCCC2)c([N+](=O)[O-])c1` (configuration not stated), the Potency is reported as active: 28.2 µM.
With `COc1cc(NC(=O)c2ccnc(N)c2)cc(C(=O)Nc2cccc(C(F)(F)F)c2)c1` the Potency was inconclusive: 39.8 µM [inhibitor, single point].
In the case of `N#CC1=C(N)NC(SCC(=O)c2ccccc2)=C(C#N)C12CCCC2`, the Potency is reported as inconclusive: 44.7 µM [inhibitor, single point].
With `CCC(CO)Oc1cc(NCc2ccccc2O)c2ncn(C(C)C)c2c1` (configuration not stated) the Potency was inconclusive: 50.1 µM [inhibitor, partial curve, poor fit].
With `O=C(O)c1ccc2nc(-c3cc4cc(F)ccc4oc3=O)[nH]c2c1` the Potency was inconclusive: 79.4 µM [inhibitor, partial curve].
With `CC(C)Cc1cc(C(=O)O)n[nH]1` the Potency was active: 25.1 µM.
In the case of `O=C(Nc1ccc(S(=O)(=O)Nc2ncccn2)cc1)c1ccc(F)c(S(=O)(=O)N2CCOCC2)c1`, the Potency is reported as inconclusive: 15.8 µM [inhibitor, single point].
With `CCc1ccc(/C=C2\Oc3cc(OC(=O)N4CCOCC4)ccc3C2=O)cc1` the Potency was inconclusive: 20 µM [inhibitor, full curve].
In the case of `CCOC(=O)c1ccc(NC(=O)c2csc3c2CCCCC3)cc1`, the Potency is reported as “inactive”.
For `Cc1ccc(/C=N/Nc2nc3ccccc3[nH]2)s1`, the Potency was inconclusive: 12.6 µM [inhibitor, full curve].
With `[N-]=[N+]=NC1C[C@H](n2ccc(=O)[nH]c2=O)O[C@@H]1CO` (some centres not stated) the Potency was inconclusive: 89.1 µM [inhibitor, single point].
In the case of `O=C(Nc1ccc2oc(-c3cccnc3)nc2c1)c1ccc(-c2ccccc2)o1`, the Potency is reported as inconclusive: 89.1 µM [inhibitor, single point].
For `O=C1CC(SCCc2nc3ccccc3[nH]2)C(=O)N1c1ccc(F)cc1` (configuration not stated), the Potency was “inactive”.
`Cc1ccc(C(=O)NCc2nc3ccccc3[nH]2)o1` was tested, and the Potency was “inactive”.
For `CC(=O)c1cccc(N=Nc2c(C)[nH]c3ccccc23)c1`, the Potency was inconclusive: 63.1 µM [inhibitor, single point].
In the case of `Cc1nn(-c2ccccc2)c(N)c1N=Nc1ccc2ccccc2c1`, the Potency is reported as active: 39.8 µM.
`CCc1ccc(NC(=O)C(=O)NCC(c2cccnc2)N2CCN(C)CC2)cc1` (configuration not stated) was tested, and the Potency was active: 56.2 µM.
In the case of `CC1CCCN(CCCCOc2cccc(Br)c2)C1` (configuration not stated), the Potency is reported as active: 50.1 µM.
For `CCCCn1c(N)c(N(CC(C)C)C(=O)c2cc3ccccc3cc2OC)c(=O)[nH]c1=O`, the Potency was “inactive”.
With `Cc1nn(S(=O)(=O)c2ccccc2)c(C)c1Sc1ccc([N+](=O)[O-])cc1` the Potency was inconclusive: 50.1 µM [inhibitor, partial curve].
With `Cc1ccc(N2CCN(/N=C/C3=C(N4CCOCC4)C(=C\c4ccccc4)/CC3)CC2)cc1` the Potency was “inactive”.
With `C#CCOCCOCCOCCNc1nc(N2CCN(C(=O)C([C@@H](C)CC)n3cc(C(N)Cc4ccc(O)cc4)nn3)CC2)nc(N2CCN(C(=O)[C@H](CCC(=O)O)n3cc(C(N)[C@H](C)CC)nn3)CC2)n1` (some centres not stated) the Potency was inconclusive: 63.1 µM [inhibitor, partial curve, poor fit].
`CC(=O)c1cccc(NC(=O)c2cc(-c3ccncc3)nc3ccccc23)c1` was tested, and the Potency was “inactive”.
For `CCOC(=O)N(O)c1ccc(C=Cc2ccccc2)cc1`, the Potency was inconclusive: 31.6 µM [inhibitor, partial curve].
For `CCCCN=C(NNc1ccc(Br)cc1)C(=O)OCC`, the Potency was inconclusive: 63.1 µM [inhibitor, single point].
In the case of `Cc1cccc(C(=O)NC(=S)Nc2ccc(S(=O)(=O)N3CCCCC3)cc2)c1`, the activity change, negative = inhibition is reported as inactive: -2.05% [at 11.4 µM].
For `Cc1ccc(OCc2nnc(SCc3cc(=O)[nH]c4ccccc34)n2-c2ccccc2)cc1`, the Potency was inconclusive: 89.1 µM [inhibitor, single point].
With `COc1ccc(-n2nc3cc(C)c(N)cc3n2)cc1Cl` the Potency was active: 56.2 µM.
For `CCOC(=O)C1CCN(c2cc3c(cc2NC(=O)c2ccccc2Br)n(C)c(=O)n3C)CC1`, the Potency was inconclusive: 44.7 µM [inhibitor, partial curve].
For `COc1cc(-c2nc3ccccn3c2/N=C/c2cc(OC)c(OC)c(OC)c2)ccc1O`, the Potency was active: 44.7 µM.
`O=C(O)c1cc(-c2ccccc2)n(-c2ccccc2)n1` was tested, and the Potency was inconclusive: 89.1 µM [inhibitor, single point].
`CC(C)c1ccc(NS(=O)(=O)c2ccc3[nH]cc(C(=O)N4CCCC4)c(=O)c3c2)cc1` was tested, and the Potency was inconclusive: 10 µM [inhibitor, full curve, poor fit].
`O=C(COc1ccc(Cl)cc1)N1CCN(c2ccc([N+](=O)[O-])c(N3CCOCC3)c2)CC1` was tested, and the Potency was inconclusive: 20 µM [inhibitor, full curve, poor fit].
In the case of `O=C(Nc1cccc(S(=O)(=O)Nc2ccccc2Cl)c1)c1ccc(N2CCCC2)c([N+](=O)[O-])c1`, the Potency is reported as inconclusive: 35.5 µM [inhibitor, partial curve].
For `COc1cccc(N(C(=O)c2ccco2)c2nc(-c3sc(NC(=O)c4ccco4)nc3C)cs2)c1`, the Potency was inconclusive: 63.1 µM [inhibitor, partial curve, poor fit].
In the case of `COc1ccc(C(=O)Nc2ccc(N3CCCC3)cc2)cc1Br`, the Potency is reported as inconclusive: 79.4 µM [inhibitor, partial curve].
In the case of `CC(=O)Nc1ccc(S(=O)(=O)NCCSCc2ccco2)cc1`, the Potency is reported as “inactive”.
For `CC1(c2ccc([N+](=O)[O-])cc2)Nc2ccccc2S1` (configuration not stated), the Potency was active: 39.8 µM.
`Cc1ccc(S(=O)(=O)N2CCC[C@H]2C(=O)NC2=NCCS2)cc1` was tested, and the Potency was inconclusive: 31.6 µM [inhibitor, single point].
